Data from the supplement of paper PMC3334620.
The full ranking holds about 33,000 sequences; the median of “E-score (-0.5 to 0.5)” is about -0.036, and the highest 2% start at about 0.37. This is one part of the list.

target: T1, Yer064c (UniProt P40041); test: PBM E-score (8-mer binding enrichment) (E-score (-0.5 to 0.5)); higher = stronger / more preferred TF binding; most listed sequences are background and not binding sites; details: protein concentration: 200 nM; construct: GST-full length
T1 sequence: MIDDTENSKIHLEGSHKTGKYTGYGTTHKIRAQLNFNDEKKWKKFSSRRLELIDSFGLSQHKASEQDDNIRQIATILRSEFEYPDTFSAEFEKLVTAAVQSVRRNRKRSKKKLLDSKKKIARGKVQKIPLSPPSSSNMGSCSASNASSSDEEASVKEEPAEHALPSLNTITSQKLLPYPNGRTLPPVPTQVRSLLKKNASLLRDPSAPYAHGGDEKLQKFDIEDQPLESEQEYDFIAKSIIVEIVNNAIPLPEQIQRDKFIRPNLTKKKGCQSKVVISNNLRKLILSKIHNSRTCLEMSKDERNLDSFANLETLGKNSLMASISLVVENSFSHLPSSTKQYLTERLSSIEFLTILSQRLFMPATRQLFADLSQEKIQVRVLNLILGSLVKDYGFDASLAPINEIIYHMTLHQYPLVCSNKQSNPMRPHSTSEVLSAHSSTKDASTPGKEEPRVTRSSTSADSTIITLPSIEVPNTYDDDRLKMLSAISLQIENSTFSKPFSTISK
How it was run: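 Universal all-10-mer Agilent arrays, double-stranded by primer extension on fresh or once-stripped slides, were probed with about 100-200 nM GST-tagged yeast transcription factors made by PURExpress. Fluorescent anti-GST detected bound protein, and masliner normalised the scans. E-scores from the Universal PBM Analysis Suite were given to each ungapped eight-base word pooled with its reverse complement.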

| Sequence | PBM E-score |
| --- | --- |
| CTCGGCGA | 0.0368 |
| AAAGGAAA | -0.0945 |
| ATGTAACA | 0.0112 |
| GTGTTTCA | 0.0559 |
| AGGAAGGC | -0.154 |
| GCTATAAC | -0.101 |
| GCCTGAAC | -0.144 |
| CTTCAGAA | -0.124 |
| CCCCACCC | -0.0582 |
| CCCTACGC | -0.129 |
| GGGCCACC | -0.00262 |
| AAATCTAA | 0.0628 |
| AGTTTTGA | 0.19 |
| ACTCCAAC | 0.0152 |
| GCAGCAAA | -0.244 |
| GATCCTCC | -0.265 |
| ACTCTAAT | 0.248 |
| GGGATTGA | -0.0351 |
| GGGCCCAA | -0.0621 |
| CACGTGTC | 0.106 |
| CGGGGGGC | -0.258 |
| GTGCCAGA | -0.233 |
| GGTATGCA | -0.152 |
| CGGTATAC | -0.119 |
| AGAGGCCT | -0.281 |

| Sequence | PBM E-score |
| --- | --- |
| ATCGATGG | 0.163 |
| AAGGTTGC | -0.377 |
| CAGTATGC | -0.0854 |
| TATCTCGA | 0.0149 |
| AGTGTAAA | 0.141 |
| CGCTTGGA | -0.136 |
| GCCTCACC | -0.208 |
| GGCTCGAC | 0.0352 |
| GGCGTGTA | -0.0577 |
| ATCGTAAA | 0.0659 |
| GCAACGCA | -0.188 |
| CTGGGTGA | 0.232 |
| CGGTGTCC | -0.26 |
| TGCCCTAA | -0.179 |
| AAGATAAC | 0.00791 |
| ACTTTTTA | 0.199 |
| GCAGCGCC | -0.235 |
| ACGTAGCT | -0.0184 |
| GCATAAAC | -0.0588 |
| ATAGCTCA | -0.158 |
| AACATAGT | 0.131 |
| ATCCTGTC | -0.0425 |
| CGGGCCAA | -0.273 |
| CACTAAGA | 0.119 |
| TCAGACGA | 0.121 |

| Sequence | PBM E-score |
| --- | --- |
| AGCTGATA | -0.149 |
| AAAAAGAC | 0.0429 |
| AAGAGGAC | -0.0869 |
| CACATCAC | -0.106 |
| CTAAGTAC | 0.118 |
| AAGAGCGG | -0.214 |
| AGAGCAAT | -0.141 |
| TCACCCGA | 0.224 |
| CACCTTTC | -0.216 |
| ATATTTAA | 0.183 |
| GACATTGC | -0.103 |
| CGGTACTC | 0.151 |
| ATGGTCCC | -0.116 |
| TACCATCA | -0.102 |
| ATAATAAA | 0.137 |
| AGGGGACC | -0.131 |
| CGCTTTGA | -0.117 |
| ACTAGTCC | 0.164 |
| CTAATACC | -0.118 |
| ATTAGTTG | 0.118 |
| GCCTACTA | 0.0543 |
| AACTCGCG | 0.0438 |
| GGGTAAGA | 0.172 |
| GCGCAAGC | -0.136 |
| ACACCAGC | -0.359 |

| Sequence | PBM E-score |
| --- | --- |
| ACGCTTAA | 0.0429 |
| TAGACTCA | 0.413 |
| ACTCGGTC | 0.025 |
| CACAGCAA | -0.00016 |
| ACTGCTAT | -0.0888 |
| GTCCCCGA | -0.0658 |
| CGACTCAA | 0.474 |
| CGACGTAA | 0.133 |
| ACCGGTAT | -0.251 |
| AAGGTGGA | -0.112 |
| AATGGCGC | -0.349 |
| CGGTAAAC | -0.072 |
| CGATTACA | 0.101 |
| ATGCCAAA | -0.129 |
| ATCCTGAA | 0.0956 |
| AGACATCG | 0.157 |
| CCGATGGA | -0.18 |
| GAAGACAC | -0.023 |
| CGTTTAAA | -0.0591 |
| AATGCACG | -0.0518 |
| CAGTTTAC | -0.0498 |
| AGTTTAGC | -0.129 |
| GACCTCGC | -0.121 |
| ATAACCAA | 0.0499 |
| CAAAATCC | 0.087 |

| Sequence | PBM E-score |
| --- | --- |
| AAGTCACG | 0.433 |
| ATAATCCC | -0.227 |
| AGCCACAA | 0.0122 |
| GGATGTGA | 0.0342 |
| GCAACCGA | -0.0636 |
| AAAAATCT | 0.0566 |
| TCTAAGCA | 0.151 |
| AATAGTGG | -0.102 |
| GGAATTCC | -0.395 |
| CGGTCGGC | 0.0072 |
| AGAGTTAA | 0.036 |
| GAACCCGC | -0.264 |
| AACGAGGA | -0.0859 |
| CGAAGTTC | -0.126 |
| AACTTGCC | -0.221 |
| AACCCGTG | -0.193 |
| GAACTCGA | -0.0489 |
| CACCAATG | -0.0793 |
| AGAAAAGA | 0.101 |
| AGAGTCGG | 0.326 |
| TCTACGCA | -0.00215 |
| GGTCTTTA | 0.0323 |
| ATGCGAAC | -0.0799 |
| ATCGTTAG | 0.0777 |
| AATCGAGA | 0.0741 |

| Sequence | PBM E-score |
| --- | --- |
| CATTTACG | -0.047 |
| AACCTGCT | -0.17 |
| CCGCGCTC | -0.147 |
| AGAATTAG | 0.00063 |
| ATGCCTAC | -0.322 |
| GTTTGTCA | -0.0655 |
| CCTGACTA | 0.461 |
| TGAAGCAA | -0.0849 |
| ATAATCTC | 0.137 |
| ATCCCGAC | -0.0953 |
| ATTGGTAG | 0.111 |
| AAAAGCAA | 0.0447 |
| GCCGTAGA | -0.00155 |
| GGTAAGTA | -0.105 |
| ACAAGACA | -0.114 |
| ACCGATAC | -0.139 |
| AGGGGCAG | -0.383 |
| AATAGCAA | 0.19 |
| ATACGGAG | 0.043 |
| ATTTCGAG | 0.104 |
| CGTAGTAG | 0.00309 |
| GCTTCTTA | -0.122 |
| CGTAGCGC | -0.176 |
| GAATCGCA | 0.181 |
| ATGCGTTA | -0.0969 |

| Sequence | PBM E-score |
| --- | --- |
| CTAGTTCC | -0.0858 |
| CTCCAAAC | -0.0514 |
| CTCACCTA | 0.177 |
| CACGTTTA | 0.205 |
| TACTCCTA | 0.196 |
| GTGAACCA | 0.284 |
| GGTGTGCA | -0.109 |
| CCAGGTGC | -0.14 |
| AGGTCCCA | -0.136 |
| AGTAGGTC | -0.0811 |
| CGGGGGAA | -0.311 |
| AGTAGGAA | 0.18 |
| CAGGTCCG | -0.074 |
| ACCTAGAC | -0.184 |
| CCGGTCCA | -0.268 |
| AGCTTAGG | -0.118 |
| AGATCACG | 0.0914 |
| GACAGTTA | -0.103 |
| AGAACTGC | -0.106 |
| TCCGCGAA | 0.115 |
| ATCACGAA | 0.106 |
| TCACTAAA | 0.133 |
| CGACTAAA | 0.41 |
| AGCACAGG | -0.106 |
| AAATAAAG | -0.0152 |

| Sequence | PBM E-score |
| --- | --- |
| AAGACAGG | -0.0868 |
| ACCTCGAT | 0.0441 |
| CTTTATGA | 0.3 |
| GAGAGTCC | 0.256 |
| AAAAGCGG | -0.0721 |
| AATTGTAG | 0.13 |
| CCGCGAAG | -0.2 |
| CGACGCCA | -0.274 |
| AGTGTCCA | -0.132 |
| GCCGAATA | 0.004 |
| GCACTTAA | 0.124 |
| AAACGGAT | -0.0575 |
| ACCTGACT | 0.44 |
| CTTTCAAA | 0.0256 |
| CCGTCTAC | -0.171 |
| ATTGCTCG | -0.0255 |
| CCGAGGCA | -0.00325 |
| CACGCCTC | -0.0802 |
| AGGACCCA | -0.0632 |
| ACGCAGTC | 0.264 |
| GGCTACGA | -0.101 |
| CCATGCGC | -0.0638 |
| AATTGGAC | 0.0724 |
| AATGTACA | -0.101 |
| CCTAGTAA | 0.017 |

| Sequence | PBM E-score |
| --- | --- |
| CATCATCC | 0.0788 |
| GGTGCACC | -0.277 |
| CAGAATCA | 0.349 |
| AACTATAG | -0.0531 |
| CTCGACCA | -0.14 |
| CTTTCTGC | -0.1 |
| GTTCTTAA | 0.0325 |
| CATCGGTA | 0.0395 |
| CTTAATCC | 0.114 |
| GCAGTCCC | -0.00282 |
| GGGGTGAA | 0.0547 |
| ACGTACAT | -0.0108 |
| ATTGGTGG | -0.0867 |
| GTCATAGA | 0.227 |
| CCGTGAAG | -0.158 |
| AATGATCA | 0.227 |
| GCATTCGC | -0.3 |
| TGAGTCAA | 0.489 |
| AGCCAGCA | -0.112 |
